Experimental data reported in PubChem BioAssay AID1347073 (National Center for Advancing Translational Sciences (NCATS), 2019).
About 200 (0.44%) of roughly 45,000 compounds were called active. Not shown: some 7% with an inconclusive outcome. The call rests on the fitted dose curve; in most records, active means well fitted activation curve with a large enough effect; inconclusive means small, poorly fitted or top-dose-only effect; inactive means no such curve, though single readings can be large or run the other way. This is one part of the list.

experiment: qHTS of TDP-43 Inhibitors: NCGC Sytravon Library Screen; conditions: yeast TDP-43 toxicity rescue, BacTiter-Glo growth, 24 h; series mostly up to 46.1 µM; growth rescue (activation): at the top concentration; further: nearly all actives have a fitted effect of over 55% in size; on growth rescue (activation): 0% is about no effect
How it was run: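 TDP-43-expressing yeast, pregrown in raffinose, seeded at OD600 0.02 in galactose medium with compound for 24 hr at 30 deg C. Growth read by BacTiter-Glo luminescence, so rescue of toxicity appears as activation.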
Potency means the concentration at half of the fitted maximal effect.

SMILES | growth rescue (activation) | Potency
Cc1ccccc1OCC(=O)Nc1cnn(CCCC(=O)O)c1 | inactive: 8.31% | –
COCCNc1nc(NCc2ccccc2OC)c2sccc2n1 | inactive: 6.18% | –
CCOC(=O)C1CN(S(=O)(=O)c2ccc(Cl)cc2)c2cc(S(=O)(=O)CC)ccc2O1 (stereo not drawn) | inactive: 3.32% | –
CCOC(=O)N1CCC(N2CCCC(C(=O)c3cc(F)ccc3OC)C2)CC1 (stereo not drawn) | inactive: -8.75% | –
COc1ccccc1-c1csc(NC(=O)c2cc(-c3cccs3)nc3ccccc23)n1 | inactive: 8.15% | –
COc1ccc(CCC(=O)N2CCN(c3ccc([N+](=O)[O-])cc3)CC2)cc1OC | inactive: 13.5% | –
O=C(Nc1ccc(S(=O)(=O)Nc2nccs2)cc1)c1ccc(S(=O)(=O)N2CCOCC2)cc1 | inactive: 10.7% | –
COC(=O)CCC(=O)Nc1c(C)n(C)n(-c2ccccc2)c1=O | inactive: -7.5% | –
O=C(/C=C\Nc1ccc2c(c1)OCO2)c1ccc(Cl)s1 | inactive: 9.35% | –
CN(c1ccc(C(=O)NC2CCCC2)cc1)S(=O)(=O)c1ccccc1 | inactive: 12.5% | –
O=C1N(Cc2cccc(Cl)c2)C[C@@H]2C[C@@H](c3cccc4cccnc34)N3CCC[C@@]123 | inactive: -9.56% | –
CCn1c(SCC(=O)Nc2ccc3c(c2)OCCO3)nnc1-c1ccncc1 | inactive: 6.51% | –
CCOC(=O)C1=C(C)C2C3C(=O)N(c4ccccc4C)C(=O)C3C1(C)C1C(=O)N(c3ccccc3C)C(=O)C21 (stereo not drawn) | inactive: -7.67% | –
COc1ccc2c(C)cc(SCn3nnc4ccccc4c3=O)nc2c1 | inactive: 22.5% | –
Cn1nc([N+](=O)[O-])c(C(C#N)c2nc3ccccc3n2C)c(Cl)c1=O (stereo not drawn) | inactive: 7.47% | –
O=C(CCn1c2c(c3ccccc31)CCCC2)NNC(=O)c1ccccc1[N+](=O)[O-] | inactive: 12.8% | –
COCCN(C(=S)Nc1ccc(C)cc1)C(C)c1cccnc1 (stereo not drawn) | inactive: 5.57% | –
Cc1nnc(CN(C)Cc2cn[nH]c2-c2ccc(-c3ccccc3)cc2)o1 | inactive: 13.3% | –
O=C(Nc1cccc(Cl)c1)c1ccc2c(=O)n3c(nc2c1)CCCCC3 | inactive: -35.4% | –
O=C(NC1CCN(S(=O)(=O)c2ccccc2F)CC1)c1ccco1 | inactive: 16.5% | –
COCCNC(=O)C(=O)NNS(=O)(=O)c1ccc(Cl)cc1 | inactive: 5.91% | –
Cc1ccc2c(Cl)c(C(=O)NCCc3ccccc3)sc2c1 | inactive: 5.63% | –
CCOc1ccc2c(c1)nc(NCCCO)n2Cc1ccccc1 | inactive: 0.255% | –
O=C(NCC(O)c1ccc([N+](=O)[O-])cc1)C1=COCCO1 (stereo not drawn) | inactive: 13.5% | –
Cn1nnnc1SCC(=O)Nc1sccc1C(N)=O | inactive: 6.11% | –
C/C(=N\NC(=O)c1ccoc1C)c1cccc2ccccc12 | inactive: 17.4% | –

SMILES | growth rescue (activation) | Potency
Cc1ccc(CCN2CC(C(=O)NCc3ccc4c(c3)OCO4)CC2=O)cc1 (stereo not drawn) | inactive: 19.1% | –
COc1ccc(OC)c(NC(=O)Nc2nnc(COCCO)s2)c1 | inactive: 1.4% | –
Cc1ccc(-n2ncc(-c3nnc(SCC(=O)NC4CCCC4)o3)c2N)cc1C | inactive: 23.5% | –
CCCCNC(=O)C1(C)CCCCN1Cc1ccc(-c2ccccc2)cc1 (stereo not drawn) | inactive: 13.8% | –
Cc1cc(SCC(=O)N/N=C/c2ccccc2C(=O)O)c(C)cc1Br | inactive: 5.49% | –
NS(=O)(=O)c1ccc(NC(=O)c2ccc(F)cc2F)c(NC(=O)c2ccc(F)cc2F)c1 | inactive: 1.13% | –
COc1cc(NC(=O)c2cc3ccccc3o2)ccc1NC(=O)c1ccco1 | inactive: -12.7% | –
CCc1nc2ccc(C(=O)N3CCN(C(=O)c4ccco4)CC3)cn2c1N(C)C(=O)C1CCCCC1 | inactive: 4.4% | –
CCOc1ccc(/C=C/C(=O)Nc2ccc3[nH]c(=O)[nH]c3c2)cc1 | inactive: 7.24% | –
NNC(=O)c1cc(Cl)ccc1Cl | inactive: 17.8% | –
CC(=O)Nc1ccc(Sc2ccccc2C(=O)O)cc1 | inactive: -31.7% | –
CCOCCc1nnc(NC(=O)CCS(=O)(=O)c2ccccc2)s1 | inactive: 18.1% | –
CC(C)[C@H](NC(=O)OCc1ccccc1)C(=O)OCC(=O)Nc1c(F)cccc1F | inactive: 14.9% | –
COc1ccc(CCNC(=O)Cn2c(=O)n(-c3ccc(F)cc3F)c(=O)c3sccc32)cc1OC | inactive: 6.26% | –
CCn1cc(C(=O)NC2CCCC2)c(=O)c2cc(S(=O)(=O)N3CCOCC3)ccc21 | inactive: 4.52% | –
Cc1ccccc1C(=O)NCC(=O)N1CCN(c2ccccn2)CC1 | inactive: 4.02% | –
Cc1nc2ccccn2c1C(=O)c1ccccc1 | inactive: 11.6% | –
Cc1ccc(C(C(=O)NC2CCCCC2)N(C(=O)Cc2c[nH]c3ccccc23)c2ccccc2C)o1 (stereo not drawn) | inactive: 8.58% | –
NC1=NC2(CCCC2)n2c(nc3ccccc32)N1 | inactive: -6.15% | –
CC1=C(C(=O)OCc2ccccc2)C(c2ccccn2)c2c(n(C)c(=O)n(C)c2=O)N1 (stereo not drawn) | inactive: 3.85% | –
CCOC(=O)/C(=N/Nc1ccccc1OC)N1CCCc2ccccc21 | inactive: 7.97% | –
O=C(Nc1ccc(C(=O)O)cc1)Nc1ccc(F)cc1F | inactive: 13.7% | –
Cc1cc(C(=O)OC(C(=O)Nc2ccc(C)c(Cl)c2)c2ccccc2)c(C)o1 (stereo not drawn) | inactive: -5.48% | –
CCOC(=O)N1CCN(C(=O)C2CCCN(c3ncnc4c3nc3n4CCCCC3)C2)CC1 (stereo not drawn) | inactive: 7.39% | –
Cc1cc([N+](=O)[O-])nn1CC(=O)Nc1ccc(Cl)cn1 | inactive: 1.23% | –
Cc1ccc(S(=O)(=O)N2CCCCCC2)cc1C(=O)Nc1cccnc1 | inactive: -14.2% | –

SMILES | growth rescue (activation) | Potency
CCc1nc2ccc(C(=O)N3CCN(C(C)=O)CC3)cn2c1N(CCC(C)C)CCN(C)C | inactive: -4.39% | –
CCCCN(C=O)c1c(CC)nc2c(OCC(=O)c3ccc(F)cc3)cccn12 | inactive: 1.6% | –
CC(C(=O)O)n1cnc2sc3c(c2c1=O)CCCC3 (stereo not drawn) | inactive: 3.86% | –
Cc1onc(-c2ccccc2Cl)c1C(=O)Nc1ccccc1C(N)=O | inactive: -32.2% | –
CC(=O)c1cccc(CN2CCC(n3nccc3NC(=O)CCCc3ccccc3)CC2)c1 | inactive: -6.29% | –
CCNC(=O)C1CCCN(C(=O)c2cnc3ccccc3n2)CC1 (stereo not drawn) | inactive: -0.283% | –
O=C(Cc1ccccc1)Nc1ccc(S(=O)(=O)N2CCOCC2)cc1 | inactive: 7.23% | –
O=C(NCc1ccco1)C(c1ccc(F)cc1)N(C(=O)Cc1cccs1)c1cccnc1 (stereo not drawn) | inactive: -4.91% | –
N#Cc1c(NC(=S)NC(=O)c2ccccc2)sc2c1CCCC2 | inactive: 16.4% | –
CC(C)c1ccc(N(CC(=O)NCCc2ccccc2)C(=O)c2csnn2)cc1 | inactive: 8.12% | –
COc1cc(C2SCC(=O)N2c2c(C)n(C)n(-c3ccccc3)c2=O)ccc1O (stereo not drawn) | inactive: 5.61% | –
COCCNC(=O)C1(C)CCCN(C(=O)c2c(F)ccc(C)c2F)C1 (stereo not drawn) | inactive: 8.74% | –
CC1=NCCN1S(=O)(=O)c1c(C(C)C)cc(C(C)C)cc1C(C)C | inactive: -1.26% | –
CCOc1cc(CNc2ccc(N(C)C)cc2)cc(Br)c1OCC(=O)NC(C)(C)C | inactive: 13.9% | –
Cc1nc2c(OCc3ccc(C#N)cc3)cccn2c1N(C)C(=O)CCC1CCCC1 | inactive: -6.2% | –
O=C(CSc1nnnn1-c1cccnc1)Nc1cccc(Cl)c1 | inactive: 7.87% | –
Cc1cccc(NC(=O)COC(=O)c2ccc3c(=O)n4c(nc3c2)CCC4)c1 | inactive: 21% | –
CSc1ccccc1C(=O)C1CCCN(C(=O)c2cc(C(C)C)no2)C1 (stereo not drawn) | inactive: 22.9% | –
COc1ccc(NC(=O)c2cc(C3CCCCN3C(=O)C3CCCCC3)on2)c(C)c1 (stereo not drawn) | inactive: 7.4% | –
CCNc1nc(-c2ccc(OC(F)F)cc2)c(C)s1 | inactive: 12.3% | –
Oc1c(Br)cc(Br)cc1/C=N/Nc1ccc(Cl)nn1 | inactive: -33.7% | –
COC(=O)Cc1ccc(OCC(=O)NC2CCCC2)cc1 | inactive: 19.4% | –
Cc1ccc(CNC(=O)C2(S(=O)(=O)c3ccc(C)cc3)CC2)cc1 | inactive: 18.3% | –
O=[N+]([O-])c1cccc(/C([O-])=C(/C(=S)Nc2cccc3ccccc23)[n+]2ccccc2)c1 | inactive: 13.9% | –
COc1ccc(NC(=O)COC(=O)c2ccc(Cl)c(S(N)(=O)=O)c2)c([N+](=O)[O-])c1 | inactive: 0.437% | –
CC(NS(=O)(=O)c1ccc(OCC(=O)Nc2cccc([N+](=O)[O-])c2)cc1)c1ccccc1 (stereo not drawn) | inactive: -7.39% | –

SMILES | growth rescue (activation) | Potency
O=c1[nH]n2c(C(F)(F)F)cc(C3CC3)nc2c1N=Nc1ccccc1 | inactive: -4.6% | –
O=C1NC(c2ccc(-c3ccccc3[N+](=O)[O-])o2)C(C(=O)c2ccc(F)cc2)C(O)(C(F)(F)F)N1 (stereo not drawn) | inactive: 18.5% | –
O=C(CCl)Nc1ccc(S(=O)(=O)Nc2nccs2)cc1 | inactive: 6.05% | –
CCOc1cc(S(=O)(=O)N2CCCC2)c(C)cc1C | inactive: -7.12% | –
O=C(N=C1c2ccccc2CN1c1ccccc1)c1cccc([N+](=O)[O-])c1 | inactive: 12.5% | –
COC(=O)/C=C1/N/C(=N\c2nc(C)cc(C)n2)N(c2cccc(C)c2)C1=O | inactive: 0.319% | –
O=C(CSc1nnc2c(Cl)cc(Cl)cn12)NC1CCS(=O)(=O)C1 (stereo not drawn) | inactive: 11.5% | –
CCc1nc2ccc(C(=O)NC3CCN(Cc4ccccc4)CC3)cn2c1N(C)CCN1CCOCC1 | inactive: 1.58% | –
Cc1cc(C)c(NC(=O)CSc2nnc(-c3ccccn3)n2N)c(Cl)c1 | inactive: 1.39% | –
Cc1ccc(S(=O)(=O)N(C)CC(=O)N2CCN(Cc3ccc4c(c3)OCO4)CC2)cc1 | inactive: -11.7% | –
O=S(=O)(NCC1CCCO1)c1ccc(S(=O)(=O)N(Cc2ccc(F)cc2)Cc2ccco2)cc1 (stereo not drawn) | inactive: 13.9% | –
Cc1ccc(NC(=O)CN2C(=O)S/C(=C\c3cc(C)n(-c4ccc(C(=O)O)cc4)c3C)C2=O)cc1 | inactive: 8.44% | –
CCCCCOCC1CC(C/C(C)=N/Nc2nc(-c3ccccc3)cs2)C(=O)O1 (stereo not drawn) | inactive: -5.89% | –
Cc1cc(C)n(-c2ccc(C(=O)Nc3cccc(S(=O)(=O)N4CCCC4)c3)cc2)n1 | inactive: -7.25% | –
Cc1ccc(S(=O)(=O)N(CC(=O)NCc2cccnc2)c2ccc(F)cc2)cc1 | inactive: -11.1% | –
COc1ccc2sc(C)[n+](C)c2c1 | inactive: 3.39% | –
Cc1nnc(NC(=O)C2CCCN2S(=O)(=O)c2ccc(Cl)cc2)s1 (stereo not drawn) | inactive: 11.1% | –
COc1cc(/C=C2\SC(=S)N(NS(=O)(=O)c3ccc(C)cc3)C2=O)cc(OC)c1OC | inactive: -13.9% | –
COc1cccc(N(C(=O)c2snc(C(N)=O)c2N)C(C(=O)NCC2CCCO2)c2cccs2)c1 (stereo not drawn) | inactive: 9.73% | –
O=C(O)c1ccccc1OCCOc1ccccc1 | – | active: 22.4 µM
O=C(Nc1cc(C(F)(F)F)ccc1Cl)C(Sc1nnc(-c2cccs2)o1)c1ccccc1 (stereo not drawn) | inactive: 15.3% | –
CC(C)CCC(O)(CCC(C)C)C(=O)NNc1ccccc1 | inactive: 14.4% | –
CCN1CCN(CC(O)COC(c2ccccc2)c2ccccc2)CC1 (stereo not drawn) | inactive: -1.99% | –
Cc1cc(S(=O)(=O)NCc2ccncc2)c(C)cc1Br | inactive: -5.11% | –
O=C(/C=C/Nc1ccc(F)cc1F)c1cccs1 | inactive: 13.7% | –
